Tests used:
[1] = test system: Zucker diabetic fatty (ZDF) rat; experiment: Fasting blood glucose, plasma insulin, C-peptide and HOMA-IR in ZDF rats (Example 3); assay type: in vivo; conditions: vs vehicle ZDF; for decrease of fasting blood glucose: after 12, 19 or 26 days, n.s; for increase of plasma insulin levels: ns
Experimental: (§1) For the groups treated with AB14, the antibody was administered once weekly via the caudal vein (i.v., 5 mL/kg) on days 1, 8, 15, and 22 at two different doses 20 mg/kg/week (groups 3 and 7) or 60 mg/kg/week (groups 4 and 8). All other groups were treated once weekly with vehicle 1 (i.v., 5 mL/kg). The intravenous treatments were performed in the morning on day 1, 8, 15, and 22 while under isoflurane anaesthesia. The volume of administration was individually adapted according to the most recent body weight.
(§2) All other groups were treated daily with vehicle 2 (p.o., 5 mL/kg) for 28 days. The most recent body weight was used to calculate the average volume of administration in each group.
(§3) A fasting (6 hours on day 0 from 8:00 am to 02:00 pm, and overnight on day 12, 19 and 26 from ˜6:00 pm to ˜8:00 am) was performed before each blood collection. Blood was collected at ˜2:00 pm, from the tip of the tail, on day 0 (before screening, 150 μL, potassium EDTA), and at ˜8:00 am prior to dosing on days 12 (110 μL, potassium EDTA), 19 (150 μL, potassium EDTA) and 26, (110 μL, potassium EDTA).
(§4) Fasting blood glucose (glucometers) was measured on days 0, 12, 19, and 26. Fasting plasma insulin, peptide-C (ELISA method), free fatty acids, triglycerides, total cholesterol (colorimetric method), and HDL-cholesterol (phosphotungstate precipitation, colorimetric method) were measured on day 0, and prior to dosing on days 12, 19, and day 26. Non HDL-cholesterol was calculated as total cholesterol—HDL-cholesterol. Fructosamine was measured on days 0, 19 and 28. HbA1c (DCA 2000) was measured on days 0 and 28.

Normal rats = experiment: Individual tissue glucose utilization rate (14C-2-DOG) during clamp in normal rats (Example 1); assay type: in vivo, rat; conditions: Ab14 100 mg/kg i.v., vs vehicle
Experimental: To determine the individual tissue glucose utilization rate, a bolus injection of 100 μCi per rat of deoxy-D-glucose 2-^14C (^14C-2-DOG) through the femoral vein was performed 60 min before the end of the D-[3-^3H]-glucose infusion. Plasma ^14C-2-DOG disappearance and glucose concentration were determined in 10 μL drops of blood sampled from the tip of the tail vein at 0, 5, 10, 15, 20, 25, 30, 45, and 60 minutes after the injection. At the end of the experiment, vastus lateralis (VL), extensor digitorum longus (EDL) and soleus muscles, epididymal and inguinal white adipose tissues, heart apex, and skin (as negative control) were dissected, flash frozen and kept at −80° C. A piece of each tissue was dissolved in 1M NaOH and then neutralized with 1M HCl. […]. D-2-^14C deoxyglucose was differentially precipitated by the use of a zinc hydroxide (0.3M) solution or a perchloric acid solution (6%). Both radioactivity contents were measured to evaluate the glucose uptake expressed as ng/mg/min.

HFD rats = experiment: Body weight and food intake in high fat/high fructose diet (HFD) rats (Example 2); assay type: in vivo, rat; conditions: vs HFD vehicle
Experimental: After 6 weeks of HFD rats were randomized to treatment groups according to their glucose intolerance (AUC calculation during an oral glucose tolerance test (OGTT)) and their HOMA-IR (insulin resistance index).
Body weight and food consumption were measured 3 times per week until 10 days of treatment. HOMA-IR was measured on day 10 and 15. A 2-step clamp (5 mU/kg/min and then 15 mU/kg/min insulin) was performed on day 15 or 16. Glucose Turnover (GTO) was assessed using ^3H-glucose tracer infusion during the clamp procedure.
Ab14 (10, 30, 100 mg/kg) and the vehicle were weekly administered via i.v. route (via the caudal vein, under isoflurane anaesthesia), in the morning, on day 1 and day 8 of treatment.
Body weight was measured once a week during the first six week of HFD. Body weight was measured 3 times per week during the first 10 days of treatment. Food consumption was measured over 48 h or 72 h, just before treatment and 3 times per week during treatment until surgery procedure (day 11).

[2] = test system: Zucker diabetic fatty (ZDF) rat; experiment: Plasma triglycerides, free fatty acids and cholesterol in ZDF rats (Example 3); assay type: in vivo; conditions: for decrease of plasma triglycerides levels: ns
Experimental: as §1, §2, §3, §4

[3] = days 12, 19 and 26, AB14 20 mg/kg
[4] = Ab14 10, 30, 100 mg/kg/week i.v., metformin 200 mg/kg/day

B1: Ab14: humanized anti-CGRP antibody consisting of the light and heavy polypeptide chains of SEQ ID NOs 132 and 134 (protein)
light: QVLTQSPSSLSASVGDRVTINCQASQNVYNNNYLAWYQQKPGKVPKQLIYSTSTLASGVPSRFSGSGSGTDFTLTISSLQPEDVATYYCLGSYDCSRGDCFVFGGGTKVEIKRTVAAPSVFIFPPSDEQLKSGTASVVCLLNNFYPREAKVQWKVDNALQSGNSQESVTEQDSKDSTYSLSSTLTLSKADYEKHKVYACEVTHQGLSSPVTKSFNRGEC
heavy: EVQLVESGGGLVQPGGSLRLSCAVSGIGLSSYYMQWVRQAPGKGLEWVGVIGSDGKTYYATWAKGRFTISRDNSKTTVYLQMNSLRAEDTAVYFCTRGDIWGQGTLVTVSSASTKGPSVFPLAPSSKSTSGGTAALGCLVKDYFPEPVTVSWNSGALTSGVHTFPAVLQSSGLYSLSSVVTVPSSSLGTQTYICNVNHKPSNTKVDARV[here human IgG1 Fc with changes without letters]
decrease of fasting blood glucose ([1]; AB14 20 mg/kg/week): about 15%
decrease of fasting blood glucose ([1]; AB14 60 mg/kg/week): about 15%
increase of plasma C-peptide levels ([1]; day 12, AB14 60 mg/kg alone or + metformin 200 mg/kg/day): 10%
increase of plasma insulin levels ([1]; day 12, AB14 60 mg/kg): 74%
increase of plasma insulin levels ([1]; day 19, AB14 60 mg/kg): 21%
increase of plasma insulin levels ([1]; day 26, AB14 60 mg/kg): 19%
HOMA-IR [1, 3]: did not change
plasma C-peptide levels [1, 3]: did not change
plasma insulin levels [1, 3]: did not change
plasma C-peptide levels ([1]; days 19 and 26, AB14 60 mg/kg): no effect
change of glucose utilization in the heart (Normal rats; metformin 500 mg/kg p.o.): 21%
glucose utilization rate in white adipose tissues (deep and subcutaneous) (Normal rats; metformin 500 mg/kg p.o.): did not affect
increase of glucose utilization in mixed vastus lateralis muscle (VL) (Normal rats; metformin 500 mg/kg p.o.): 70%
increase of glucose utilization in glycolytic extensor digitorum longus muscle (EDL) (Normal rats; metformin 500 mg/kg p.o., NS): 26%
increase of glucose utilization in oxidative soleus muscle (Normal rats; NS): 27%
body weight (HFD rats; 10 days of treatment, Ab14 10, 30, 100 mg/kg/week i.v., metformin 200 mg/kg/day): no effects
body weight gain (HFD rats; Ab14 30 mg/kg, metformin 200 mg/kg): slightly decreased
decrease of cumulative food consumption (HFD rats; [4]): no effect
food consumption (follow-up food intake) (HFD rats; [4]): no effect
plasma free fatty acids levels ([2]; AB14 20 mg/kg alone (vs vehicle ZDF) or with metformin (vs metformin alone)): no effect
non HDL-cholesterol levels ([2]; AB14 20 mg/kg, vs vehicle): no effect
plasma total cholesterol levels relative to day 0 ([2]; AB14 20 mg/kg, vs vehicle ZDF): no effect
non HDL-cholesterol levels ([2]; AB14 60 mg/kg, vs vehicle): no effect
plasma free fatty acids levels ([2]; AB14 60 mg/kg, vs vehicle ZDF): no effect
decrease of plasma triglycerides levels ([2]; day 12, AB14 20 mg/kg, vs vehicle): 15%
increase of total cholesterol (relative to day 0) ([2]; day 12, AB14 60 mg/kg alone or + metformin, vs vehicle ZDF): 8%
decrease of plasma triglycerides levels ([2]; day 12, AB14 60 mg/kg, vs vehicle): 14%
decrease of plasma triglycerides levels ([2]; day 19, AB14 20 mg/kg, vs vehicle): 7%
increase of total cholesterol (relative to day 0) ([2]; day 19, AB14 60 mg/kg alone or + metformin, vs vehicle ZDF): 14%
decrease of plasma triglycerides levels ([2]; day 19, AB14 60 mg/kg, vs vehicle): 9%
plasma triglycerides levels ([2]; day 26, AB14 20 mg/kg, vs vehicle): no effect
increase of total cholesterol (relative to day 0) ([2]; day 26, AB14 60 mg/kg alone or + metformin, vs vehicle ZDF): 15%
decrease of plasma triglycerides levels ([2]; day 26, AB14 60 mg/kg, vs vehicle): 12%
